According to the supplement of paper PMC8813932:
Where a name gives a salt, the structure may show the parent alone. ± gives the standard deviation of the averaged measurements. The list shows a part of the results. Many values rest on one well or one pass, so single values are uncertain.

Legend:
Test in all cases: log2 surviving fraction relative to plate median (drug vs vehicle, or drug+dl922-947 vs dl922-947 alone); ovarian cancer lines: OVCAR4 is platinum-sensitive while Ov4Cis resists cisplatin and Ov4Carbo carboplatin; higher = more cell survival
Conditions in all cases: compound concentration: 10 uM, 192 h
OVCAR4 = system: OVCAR4
Ov4Carbo = system: Ov4Carbo
Ov4Cis = system: Ov4Cis
[1] = dl922-947 oncolytic adenovirus co-treatment: MOI 10
[2] = dl922-947 oncolytic adenovirus co-treatment: none

Row | Compound | log2 surviving fraction (OVCAR4; [1]) | log2 surviving fraction (OVCAR4; [2]) | log2 surviving fraction (Ov4Carbo; [1]) | log2 surviving fraction (Ov4Carbo; [2]) | log2 surviving fraction (Ov4Cis; [1]) | log2 surviving fraction (Ov4Cis; [2])
1 | CNCCCC12CCC(c3ccccc31)c1ccccc12 [Maprotiline hydrochloride] | -3.67 ± 0.74 | -2.21 ± 1.1 | -3.59 | -2.57 | -6.67 | -5.78
2 | N[C@@H]1CONC1=O [D-Cycloserine] | 0.731 ± 0.41 | 0.246 ± 0.5 | 0.266 | -0.076 | 0.989 | 0.254
3 | O=C(O)c1ccccc1 [Benzoic acid] | 0.0815 ± 0.032 | -0.94 ± 0.53 | 0.615 | -0.195 | -1.3 | -0.382
4 | CC(C(=O)O)c1ccc(C(=O)c2cccs2)cc1 (stereo not drawn) [Suprofen (Profenal)] | -0.193 ± 0.26 | -0.135 ± 0.58 | -0.0991 | 1.11 | -1.11 | 1.35
5 | CNC(=C[N+](=O)[O-])NCCSCc1ccc(CN(C)C)o1 [Ranitidine (Zantac)] | 1.17 ± 0.55 | 0.456 ± 0.95 | 0.562 | 0.506 | 0.358 | 0.428
6 | C[C@@H](Oc1cc(-c2cnn(C3CCNCC3)c2)cnc1N)c1c(Cl)ccc(F)c1Cl | -7.43 ± 0.42 | -7.78 ± 5.1 | -8.16 | -11.3 | -8.67 | -14.8
7 | CN(C)CCCN1c2ccccc2CCc2ccc(Cl)cc21 [Clomipramine hydrochloride (Anafranil)] | -3.01 ± 0.81 | -2.14 ± 0.33 | -3.01 | -4.54 | -2.98 | -2.14
8 | Cc1ccc2c(Cl)cc(Cl)c(O)c2n1 [Chlorquinaldol] | -4.88 ± 0.13 | -6.76 ± 1.8 | -3.93 | -8.66 | -3.42 | -5.56
9 | C[C@H](N[C@@H](CCc1ccccc1)C(=O)O)C(=O)N1CCC[C@H]1C(=O)O [Enalaprilat dihydrate] | 0.991 ± 0.43 | 0.0354 ± 0.15 | 0.0465 | -1.22 | 0.0725 | 0.824
10 | COc1cc(OC)c(C(=O)CCCN2CCCC2)c(OC)c1 [Buflomedil HCl] | -0.493 ± 0.17 | -1.12 ± 0.1 | -0.664 | 0.309 | -0.17 | -2.65
11 | CCC1=C[C@H]2CN3CCc4c([nH]c5ccccc45)[C@](C(=O)OC)(C2)[C@H]13 [Catharanthine] | -1.07 ± 1 | -1.29 ± 1.9 | -1.07 | -1.92 | -1.17 | -4.5
12 | C[N+]1(C)CCC(=C(c2ccccc2)c2ccccc2)CC1 [Diphemanil methylsulfate] | 0.306 ± 0.26 | 0.456 ± 0.18 | -0.459 | 0.568 | -0.0363 | -0.0291
13 | COc1ccccc1OCCNCC(O)COc1cccc2[nH]c3ccccc3c12 (stereo not drawn) [Carvedilol] | -1.82 ± 0.24 | -1.22 ± 0.83 | -2.86 | -0.891 | -4.54 | -1.86
14 | CCCC(CCC)C(=O)O[C@H]1C[C@H]2CC[C@@H](C1)[N+]2(C)C [Anisotropine Methylbromide] | -0.00106 ± 0.0077 | 0.329 ± 0.18 | 0.00223 | -0.248 | -0.0533 | 0.655
15 | NC(=O)CC[C@H](N)C(=O)O [L-Glutamine] | -0.694 ± 0.47 | 0.211 ± 0.33 | 0.39 | -0.3 | -0.206 | -0.0316
16 | Cn1c(=O)c2c(ncn2CC2OCCO2)n(C)c1=O [Doxofylline] | 0.561 ± 1 | -0.621 ± 0.86 | -0.215 | 0.608 | -0.514 | -0.618
17 | CCC[C@H](NC(=O)[C@@H]1[C@H]2CCC[C@H]2CN1C(=O)[C@@H](NC(=O)[C@@H](NC(=O)c1cnccn1)C1CCCCC1)C(C)(C)C)C(=O)C(=O)NC1CC1 [Telaprevir (VX-950)] | -0.732 ± 0.89 | -1.94 ± 0.091 | -0.723 | -1.94 | -0.811 | -0.968
18 | COC(=O)C1=C(C)NC(C)=C(C(=O)OCC(C)C)C1c1ccccc1[N+](=O)[O-] (stereo not drawn) [Nisoldipine (Sular)] | -1.65 ± 0.54 | -1.36 ± 0.89 | -0.438 | -3.43 | -0.395 | -1.96
19 | O=c1[nH]c(=O)n([C@H]2C[C@H](O)[C@@H](CO)O2)cc1F [Floxuridine] | -1.54 ± 1.8 | -2.47 ± 0.84 | -0.936 | -6.53 | -0.275 | -0.468
20 | CC(C)(OCc1nn(Cc2ccccc2)c2ccccc12)C(=O)O [Bindarit] | -1.45 ± 0.22 | 0.217 ± 0.18 | -1.49 | 0.991 | -0.564 | -2.47
21 | O=C1[C@@H]2[C@H]3CC[C@H](C3)[C@@H]2C(=O)N1C[C@@H]1CCCC[C@H]1CN1CCN(c2nsc3ccccc23)CC1 [Lurasidone HCl] | -1.11 ± 0.5 | -0.259 ± 0.73 | -1.6 | -0.731 | -1.14 | -3.91
22 | CCCCc1oc2ccccc2c1C(=O)c1cc(I)c(OCCN(CC)CC)c(I)c1 [Amiodarone HCl] | -2.96 ± 0.48 | -1.87 ± 0.36 | -2.92 | -1.77 | -3.86 | -4.1
23 | O=P(O)(O)C(O)(Cc1cccnc1)P(=O)(O)O [Risedronic acid (Actonel)] | 0.099 ± 0.059 | -0.758 ± 2.4 | 0.157 | -1.71 | 0.323 | 0.301
